What all share (assay): co-IP; anti-HA immunoprecipitation from whole-cell lysates of A431 cells co-expressing an HA-tagged and a GFP-tagged AKAP; cells untreated, treated with 10 uM isoproterenol for 10-30 min, or washed free of agonist for 2 h; immunoblot
For orientation: In western blotting, separated proteins are transferred to a membrane and probed.

The chains behind the UniProt entries cited, without tags or fusion partners.
UniProt P24588: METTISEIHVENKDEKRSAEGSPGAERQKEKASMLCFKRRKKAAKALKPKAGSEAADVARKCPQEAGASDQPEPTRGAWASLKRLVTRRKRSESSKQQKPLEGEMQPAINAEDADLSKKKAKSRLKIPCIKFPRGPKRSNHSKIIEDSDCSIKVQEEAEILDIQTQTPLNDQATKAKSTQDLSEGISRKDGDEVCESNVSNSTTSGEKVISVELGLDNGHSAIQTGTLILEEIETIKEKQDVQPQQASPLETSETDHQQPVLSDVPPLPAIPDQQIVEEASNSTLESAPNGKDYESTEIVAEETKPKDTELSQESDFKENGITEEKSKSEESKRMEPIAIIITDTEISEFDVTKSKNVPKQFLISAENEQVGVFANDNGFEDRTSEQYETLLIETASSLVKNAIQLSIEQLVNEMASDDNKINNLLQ

Assay [1] addresses T1, HA-AKAP12 (1-362) (human) (UniProt Q02952).
T1 sequence: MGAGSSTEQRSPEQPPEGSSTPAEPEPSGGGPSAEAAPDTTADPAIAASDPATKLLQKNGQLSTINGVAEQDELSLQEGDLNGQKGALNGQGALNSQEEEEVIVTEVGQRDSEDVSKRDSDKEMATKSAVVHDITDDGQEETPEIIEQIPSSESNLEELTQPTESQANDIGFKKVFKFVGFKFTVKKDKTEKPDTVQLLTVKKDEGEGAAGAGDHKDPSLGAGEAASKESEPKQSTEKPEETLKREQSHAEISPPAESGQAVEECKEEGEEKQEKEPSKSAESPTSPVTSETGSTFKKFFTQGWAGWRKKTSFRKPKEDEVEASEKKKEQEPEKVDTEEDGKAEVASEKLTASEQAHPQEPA

Assay [2] deals with T2, HA-tagged AKAP12 (840-1782) (human) (UniProt Q02952).
T2 sequence: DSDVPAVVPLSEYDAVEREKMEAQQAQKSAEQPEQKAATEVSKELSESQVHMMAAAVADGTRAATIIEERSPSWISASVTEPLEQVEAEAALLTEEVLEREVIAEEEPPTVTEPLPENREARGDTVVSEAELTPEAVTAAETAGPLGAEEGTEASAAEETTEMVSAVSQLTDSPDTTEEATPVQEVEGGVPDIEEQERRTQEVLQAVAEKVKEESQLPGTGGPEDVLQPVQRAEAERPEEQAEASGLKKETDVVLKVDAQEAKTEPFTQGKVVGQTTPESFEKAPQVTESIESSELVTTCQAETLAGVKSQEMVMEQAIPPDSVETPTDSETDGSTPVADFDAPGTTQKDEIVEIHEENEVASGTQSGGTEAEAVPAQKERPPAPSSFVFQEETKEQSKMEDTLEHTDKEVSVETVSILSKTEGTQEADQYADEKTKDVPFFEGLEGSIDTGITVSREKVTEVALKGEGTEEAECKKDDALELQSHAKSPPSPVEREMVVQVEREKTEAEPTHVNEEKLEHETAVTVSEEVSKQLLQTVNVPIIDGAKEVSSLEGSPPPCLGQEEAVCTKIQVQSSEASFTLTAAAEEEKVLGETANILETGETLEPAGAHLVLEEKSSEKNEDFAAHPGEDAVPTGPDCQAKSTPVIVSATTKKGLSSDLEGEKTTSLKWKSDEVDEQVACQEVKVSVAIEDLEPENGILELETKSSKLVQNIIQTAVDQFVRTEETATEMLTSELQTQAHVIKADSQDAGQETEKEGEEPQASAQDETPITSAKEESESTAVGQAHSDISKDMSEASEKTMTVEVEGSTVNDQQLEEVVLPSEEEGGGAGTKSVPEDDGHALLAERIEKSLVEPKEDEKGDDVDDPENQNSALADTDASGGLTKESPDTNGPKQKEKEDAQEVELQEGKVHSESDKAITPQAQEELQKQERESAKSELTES

The target in assay [3] is T3, HA-AKAP12 (554-938) (human) (UniProt Q02952).
T3 sequence: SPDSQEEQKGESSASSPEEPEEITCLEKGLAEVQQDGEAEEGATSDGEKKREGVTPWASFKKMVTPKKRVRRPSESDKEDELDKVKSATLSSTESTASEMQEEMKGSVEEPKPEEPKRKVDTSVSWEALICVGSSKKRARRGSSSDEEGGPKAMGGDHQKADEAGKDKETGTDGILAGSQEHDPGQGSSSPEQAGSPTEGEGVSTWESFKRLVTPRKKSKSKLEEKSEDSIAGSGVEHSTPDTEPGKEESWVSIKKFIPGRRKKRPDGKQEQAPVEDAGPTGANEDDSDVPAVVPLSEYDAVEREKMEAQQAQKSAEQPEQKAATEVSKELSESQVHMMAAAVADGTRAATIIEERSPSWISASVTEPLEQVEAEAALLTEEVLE

For assay [4], the target named is T4, HA-AKAP12 (1-652) (human) (UniProt Q02952).
T4 sequence: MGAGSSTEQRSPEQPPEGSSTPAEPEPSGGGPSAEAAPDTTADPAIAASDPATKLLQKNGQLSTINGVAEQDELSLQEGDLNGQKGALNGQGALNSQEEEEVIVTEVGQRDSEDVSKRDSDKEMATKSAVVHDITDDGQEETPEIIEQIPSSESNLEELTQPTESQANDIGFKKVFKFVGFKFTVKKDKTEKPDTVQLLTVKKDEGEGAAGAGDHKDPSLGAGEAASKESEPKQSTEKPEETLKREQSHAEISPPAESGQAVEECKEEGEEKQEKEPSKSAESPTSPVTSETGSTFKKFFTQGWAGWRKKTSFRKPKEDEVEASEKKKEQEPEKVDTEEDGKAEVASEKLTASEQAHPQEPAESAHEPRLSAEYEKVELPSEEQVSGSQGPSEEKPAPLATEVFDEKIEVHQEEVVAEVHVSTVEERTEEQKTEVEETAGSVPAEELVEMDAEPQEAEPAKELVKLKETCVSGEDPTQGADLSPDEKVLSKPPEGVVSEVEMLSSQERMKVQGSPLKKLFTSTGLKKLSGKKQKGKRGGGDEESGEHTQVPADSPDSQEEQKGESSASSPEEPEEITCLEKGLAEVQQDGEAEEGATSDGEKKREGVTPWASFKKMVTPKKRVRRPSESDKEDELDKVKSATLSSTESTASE

The target in assay [5] is T5, HA-tagged full-length AKAP5 (human, UniProt P24588 1-427).
T5 construct: AKAP5 (AKAP79), human, full length; pCMV-HA vector; also called HA-AKAP5; source: A431 cells, transiently transfected, in lysate

No constants are given. Whether binding was seen depends on the method and setting. Binding seen in cells or lysates may run through a third protein. Some binding calls cover weakened binding; strength is not graded here. For some assays here: Tags and fused reporters may be left off the sequences shown.

Consider “GFP-tagged AKAP5 (from UniProt P24588 1-427)”, for which the binding entry in assay [1], in assay [2], in assay [3] and in assay [4] was “binds” in each case.

B1: GFP-tagged AKAP12 (natural protein, human, UniProt Q02952 1-1782, looked up)
chain: MGAGSSTEQRSPEQPPEGSSTPAEPEPSGGGPSAEAAPDTTADPAIAASDPATKLLQKNGQLSTINGVAEQDELSLQEGDLNGQKGALNGQGALNSQEEEEVIVTEVGQRDSEDVSKRDSDKEMATKSAVVHDITDDGQEETPEIIEQIPSSESNLEELTQPTESQANDIGFKKVFKFVGFKFTVKKDKTEKPDTVQLLTVKKDEGEGAAGAGDHKDPSLGAGEAASKESEPKQSTEKPEETLKREQSHAEISPPAESGQAVEECKEEGEEKQEKEPSKSAESPTSPVTSETGSTFKKFFTQGWAGWRKKTSFRKPKEDEVEASEKKKEQEPEKVDTEEDGKAEVASEKLTASEQAHPQEPAESAHEPRLSAEYEKVELPSEEQVSGSQGPSEEKPAPLATEVFDEKIEVHQEEVVAEVHVSTVEERTEEQKTEVEETAGSVPAEELVEMDAEPQEAEPAKELVKLKETCVSGEDPTQGADLSPDEKVLSKPPEGVVSEVEMLSSQERMKVQGSPLKKLFTSTGLKKLSGKKQKGKRGGGDEESGEHTQVPADSPDSQEEQKGESSASSPEEPEEITCLEKGLAEVQQDGEAEEGATSDGEKKREGVTPWASFKKMVTPKKRVRRPSESDKEDELDKVKSATLSSTESTASEMQEEMKGSVEEPKPEEPKRKVDTSVSWEALICVGSSKKRARRGSSSDEEGGPKAMGGDHQKADEAGKDKETGTDGILAGSQEHDPGQGSSSPEQAGSPTEGEGVSTWESFKRLVTPRKKSKSKLEEKSEDSIAGSGVEHSTPDTEPGKEESWVSIKKFIPGRRKKRPDGKQEQAPVEDAGPTGANEDDSDVPAVVPLSEYDAVEREKMEAQQAQKSAEQPEQKAATEVSKELSESQVHMMAAAVADGTRAATIIEERSPSWISASVTEPLEQVEAEAALLTEEVLEREVIAEEEPPTVTEPLPENREARGDTVVSEAELTPEAVTAAETAGPLGAEEGTEASAAEETTEMVSAVSQLTDSPDTTEEATPVQEVEGGVPDIEEQERRTQEVLQAVAEKVKEESQLPGTGGPEDVLQPVQRAEAERPEEQAEASGLKKETDVVLKVDAQEAKTEPFTQGKVVGQTTPESFEKAPQVTESIESSELVTTCQAETLAGVKSQEMVMEQAIPPDSVETPTDSETDGSTPVADFDAPGTTQKDEIVEIHEENEVASGTQSGGTEAEAVPAQKERPPAPSSFVFQEETKEQSKMEDTLEHTDKEVSVETVSILSKTEGTQEADQYADEKTKDVPFFEGLEGSIDTGITVSREKVTEVALKGEGTEEAECKKDDALELQSHAKSPPSPVEREMVVQVEREKTEAEPTHVNEEKLEHETAVTVSEEVSKQLLQTVNVPIIDGAKEVSSLEGSPPPCLGQEEAVCTKIQVQSSEASFTLTAAAEEEKVLGETANILETGETLEPAGAHLVLEEKSSEKNEDFAAHPGEDAVPTGPDCQAKSTPVIVSATTKKGLSSDLEGEKTTSLKWKSDEVDEQVACQEVKVSVAIEDLEPENGILELETKSSKLVQNIIQTAVDQFVRTEETATEMLTSELQTQAHVIKADSQDAGQETEKEGEEPQASAQDETPITSAKEESESTAVGQAHSDISKDMSEASEKTMTVEVEGSTVNDQQLEEVVLPSEEEGGGAGTKSVPEDDGHALLAERIEKSLVEPKEDEKGDDVDDPENQNSALADTDASGGLTKESPDTNGPKQKEKEDAQEVELQEGKVHSESDKAITPQAQEELQKQERESAKSELTES
notes: AKAP12 (gravin), human, full length; also called AKAP12-GFP; full-length AKAP12; source: A431 cells, stably expressing, in lysate
On to B1, for which, in assay [5], the binding entry was “binds”.

The values are drawn from PMC3170326, “AKAP12 and AKAP5 form higher-order hetero-oligomers” (Journal of Molecular Signaling, 2011).
